Experimental data as given in PubChem BioAssay AID1259407 (Chemical Carcinogenesis Research Information System (CCRIS), 2018).
“Also recorded” adds a separate entry of the source. A number of entries come with more than one value. The other results are left out here. How the calls were made is not given here. There may be further records. Values given together differ for a reason that is not stated; dose, time, organism, isomer or construct need not be as stated for each record. Records carry a tag for their origin. The letters are not those of the source and start again with each entry. Counts like (3×) count equal records among those shown.

Test system: CCRIS mutagenicity, Ames/micronucleus/aberration tests
Test: CCRIS mutagenicity studies
[1] = Test System: AMES SALMONELLA TYPHIMURIUM, Strain/Indicator: TA1535, Metabolic Activation: NONE, Method: PREINCUBATION
[2] = Test System: MOUSE LYMPHOMA, Strain/Indicator: L5178Y (TK+/TK-), Metabolic Activation: RAT, LIVER, S-9, AROCLOR 1254, Method: SUSPENSION/PLATE
[3] = Test System: AMES SALMONELLA TYPHIMURIUM, Strain/Indicator: TA98, Metabolic Activation: NONE, Method: PREINCUBATION
[4] = End Point: In vitro chromosomal aberrations, Test System: Chinese hamster lung (CHL/IU) cells, Metabolic Activation: None

`O=[N+]([O-])c1ccc(Oc2c(Cl)cc(Cl)cc2Cl)cc1` was tested, and the mutagenic call (Test System: AMES SALMONELLA TYPHIMURIUM, Strain/Indicator: YG1021, Metabolic Activation: NONE, Method: PREINCUBATION) was “active; positive and inactive; negative” and the mutagenic call (Test System: AMES SALMONELLA TYPHIMURIUM, Strain/Indicator: YG1026, Metabolic Activation: NONE, Method: PREINCUBATION) was “active; positive and inactive; negative”.
In the case of `O=C(O)C1C(C(=O)O)C2(Cl)C(Cl)=C(Cl)C1(Cl)C2(Cl)Cl` (stereo not drawn), the mutagenic call (End Point: IN VITRO CHROMOSOMAL ABERRATIONS, Test System: CHINESE HAMSTER LUNG FIBROBLAST CELLS (CHL/IU), Metabolic Activation: NONE) is reported as “inactive; negative; authors describe results as weakly positive at 24 hr; also recorded: inactive; negative”, the mutagenic call (End Point: IN VITRO CHROMOSOMAL ABERRATIONS, Test System: CHO CELLS, Metabolic Activation: NONE) is reported as “inactive; negative and active; positive” and the mutagenic call (End Point: IN VITRO CHROMOSOMAL ABERRATIONS, Test System: CHO CELLS, Metabolic Activation: RAT, LIVER, S-9, AROCLOR 1254) is reported as “inactive; negative and active; positive”.
In the case of `Nc1nc(Cl)nc2c1ncn2[C@H]1C[C@H](O)[C@@H](CO)O1`, the mutagenic call (End Point: In vitro chromosomal aberrations, Test System: Human peripheral lymphocytes, Metabolic Activation: None) is reported as “active; positive and inactive; negative”.
With `CC1CNCC(C)O1` (stereo not drawn) the mutagenic call (Test System: AMES SALMONELLA TYPHIMURIUM, Strain/Indicator: TA1535, Metabolic Activation: HAMSTER, LIVER, S-9, AROCLOR 1254, Method: PREINCUBATION) was “active; positive [333.3 to 10000 µg/plate] and inactive; negative [3333 to 33333 µg/plate]”, the mutagenic call [1] was “inactive; negative [100 to 10000 µg/plate] and active; positive [333.3 to 10000 µg/plate]” and the mutagenic call (Test System: AMES SALMONELLA TYPHIMURIUM, Strain/Indicator: TA1535, Metabolic Activation: RAT, LIVER, S-9, AROCLOR 1254, Method: PREINCUBATION) was “active; positive [333.3 to 10000 µg/plate] and inactive; negative [3333 to 33333 µg/plate]”.
With `O=C1OC2(c3ccccc31)c1cc(I)c(O)c(I)c1Oc1c2cc(I)c(O)c1I` the mutagenic call (Test System: MOUSE LYMPHOMA, Strain/Indicator: L5178Y (TK+/TK-), Metabolic Activation: NONE, Method: SUSPENSION/PLATE) was “inactive; negative [study A]; also recorded: active; positive. reevaluation of results: positive [study B]” and the mutagenic call [2] was “active; positive. reevaluation of results: positive [study A]; also recorded: active; positive [study B]”.
For `O=C(O)CBr`, the mutagenic call [3] was “inactive; negative [study A] and active; positive [study B]”.
For `Oc1cc(Cl)ccc1Oc1ccc(Cl)cc1Cl`, the mutagenic call (End Point: In vitro chromosomal aberrations, Test System: Chinese hamster V79 cells, Metabolic Activation: None) was “active; positive (structural); also recorded: inactive; negative; also recorded: active; positive (structural), weak response” and the mutagenic call (End Point: In vitro chromosomal aberrations, Test System: Chinese hamster V79 cells, Metabolic Activation: S-9) was “inactive; negative (2×); also recorded: active; positive (structural), weak response”.
`CN(C)c1ccc(C(=C2C=CC(=[N+](C)C)C=C2)c2ccc(N(C)C)cc2)cc1` was tested, and the mutagenic call (Test System: AMES SALMONELLA TYPHIMURIUM, Strain/Indicator: TA97, Metabolic Activation: RAT, LIVER, S-9, AROCLOR 1254, Method: STANDARD PLATE) was “active; positive and inactive; negative” and the mutagenic call (Test System: AMES SALMONELLA TYPHIMURIUM, Strain/Indicator: TA104, Metabolic Activation: RAT, LIVER, S-9, AROCLOR 1254, Method: STANDARD PLATE) was “inactive; negative and active; positive”.
With `O` the mutagenic call (Test System: AMES SALMONELLA TYPHIMURIUM, Strain/Indicator: TA102, Metabolic Activation: RAT, LIVER, S-9, SODIUM PHENOBARBITAL AND 5,6-BENZOFLAVONE, Method: PREINCUBATION) was “inactive; negative and active; positive”.
For `CCOC(=O)N(CCCC(=O)c1cccnc1)N=O`, the mutagenic call [3] was “active; positive and inactive; negative” and the mutagenic call [1] was “active; positive and inactive; negative”.
With `OO` the mutagenic call (Test System: AMES SALMONELLA TYPHIMURIUM, Strain/Indicator: TA97, Metabolic Activation: NONE, Method: PREINCUBATION) was “active; positive [study A] and inactive; negative [study B]” and the mutagenic call (Test System: AMES SALMONELLA TYPHIMURIUM, Strain/Indicator: TA1537, Metabolic Activation: NONE, Method: PREINCUBATION) was “inactive; negative [study A] and active; positive [study B]”.
With `Nc1cc(Cl)ccc1O` the mutagenic call [4] was “active; positive (structural changes and ploidy); also recorded: active; positive (structural changes) (2×)”, the mutagenic call (Test System: AMES SALMONELLA TYPHIMURIUM, Strain/Indicator: TA100, Metabolic Activation: RAT, LIVER, S-9, PHENOBARBITAL AND BETA-NAPHTHOFLAVONE, Method: PREINCUBATION) was “inactive; negative and active; positive” and the mutagenic call (Test System: AMES SALMONELLA TYPHIMURIUM, Strain/Indicator: TA1537, Metabolic Activation: RAT, LIVER, S-9, PHENOBARBITAL AND BETA-NAPHTHOFLAVONE, Method: PREINCUBATION) was “inactive; negative and active; positive”.
`CC(=O)CC(=O)Nc1ccccc1` was tested, and the mutagenic call [4] was “inactive; negative (2×); also recorded: inactive; negative. toxicity at 2 highest doses”.
With `C[Si](C)(C)N[Si](C)(C)C` the mutagenic call [2] was “inactive; negative. reevaluation of results: inconclusive; also recorded: inactive; negative. reevaluation of results: negative”.
`O=c1c(O)c(-c2ccc(O)cc2)oc2cc(O)cc(O)c12` was tested, and the mutagenic call (Test System: AMES SALMONELLA TYPHIMURIUM, Strain/Indicator: TA100, Metabolic Activation: HAMSTER, LIVER, S-9, AROCLOR 1254, Method: STANDARD PLATE) was “active; positive [study A] and inactive; negative [study B]” and the mutagenic call (Test System: AMES SALMONELLA TYPHIMURIUM, Strain/Indicator: TA100, Metabolic Activation: RAT, LIVER, S-9, AROCLOR 1254, Method: STANDARD PLATE) was “active; positive [study A] and active; positive [study B] and inactive; negative [study C]”.
